# Measurements as given in PubChem BioAssay AID1347428 (National Center for Advancing Translational Sciences (NCATS), 2020).
# Among all 91,000 compounds or so, about 290 (0.32%) were called active. Inconclusive results, whose numbers are uncertain, are shown with a selection of clear calls. The call rests on the fitted dose curve; in most records, active means well fitted inhibition curve with a large enough effect; inconclusive means small, poorly fitted or top-dose-only effect; inactive means no such curve, though single readings can be large or run the other way. Potencies of inconclusive entries are doubtful fits and often do not repeat.
# Target: Single-stranded DNA cytosine deaminase (Homo sapiens) (UniProt Q9GZX7)
# Chain of UniProt Q9GZX7 (Q9GZX7 whole entry, looked up): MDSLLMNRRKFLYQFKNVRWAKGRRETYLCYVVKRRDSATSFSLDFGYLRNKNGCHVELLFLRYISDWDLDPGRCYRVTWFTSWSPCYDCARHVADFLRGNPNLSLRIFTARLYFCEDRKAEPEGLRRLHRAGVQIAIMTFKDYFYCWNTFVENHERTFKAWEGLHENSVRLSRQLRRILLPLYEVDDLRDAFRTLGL
# Test: Primary qHTS assay for inhibitors of Activation Induced Cytidine Deaminase (AID): AID signal; further: nearly all actives have a fitted effect of over 25% in size
# Conditions: AID deamination FRET fluorescence, UDG-coupled, 4 h; activity change, negative = inhibition: at 115 µM (top of the series)
# On the % scale 0 is the no-effect control and ±100 the full control effect; potency means the concentration at half of the fitted maximal effect; tags describe the fitted curve by direction and shape.
Compound,Potency,"activity change, negative = inhibition"
CC(=O)N1CCc2c(sc3c2c(=O)n(-c2ccccc2Cl)c(=O)n3Cc2cccc(C)c2)C1,active: 35.5 µM,–
CCOC(=O)N1CCN(Cc2nc3cc(NC(=O)c4ccccc4Cl)ccc3n2C(C)C)CC1,"inconclusive: 44.7 µM [inhibitor, partial curve]",–
Cc1ccc(-c2csc(-c3nc(-c4cc(C)ccc4C)cs3)n2)cc1,–,inactive: -15.2%
OCCNc1nc(Nc2ccc(Br)cc2)nc2nccnc12,"inconclusive: 70.8 µM [inhibitor, partial curve, poor fit]",–
CCOC(=O)c1cc(-c2ccccc2)n(CCC(=O)NCCc2ccccc2)c1C,"inconclusive: 50.1 µM [inhibitor, partial curve]",–
CCOC(=O)c1cnc2ccc(OC)cc2c1Nc1ccc(OCc2ccccc2Cl)cc1,"inconclusive: 20 µM [inhibitor, full curve, poor fit]",–
COCCOc1ccc(C(=O)/C=C/c2ccc(C(=O)OC)o2)cc1,–,inactive: 19.9%
O=C(O)CC1C(=O)NCCN1CC1CCCCC1 (configuration not stated),–,inactive: 1.31%
Cc1nn(C)c2c1c(-c1ccccc1)cc(=O)n2Cc1ccc(F)cc1,"inconclusive: 22.4 µM [inhibitor, full curve, poor fit]",–
O=C(O)c1ccc(/C=C/C(=O)c2nc3ccccc3s2)cc1,–,inactive: 32.4%
Nc1nccnc1C(=O)NCCNC(=O)c1ccco1,–,inactive: 4.79%
O=C(NC1CCCCC1)c1ccnc(Cl)c1,–,inactive: -9.54%
O=C(NC(CCCc1ccccc1)c1ccccc1)c1ccc[n+]([O-])c1 (configuration not stated),–,inactive: -7.86%
COc1ccc(CN(Cc2ccco2)C(=O)c2ccccc2F)cc1,"inconclusive: 56.2 µM [inhibitor, partial curve, poor fit]",–
Cc1ccc2c(c1)cc1c(=O)n(Cc3ccc(Cl)cc3)nc(C)n12,"inconclusive: 89.1 µM [inhibitor, single point]",–
CC(C)(Sc1ccc(CCN(CCCCC2CCCCC2)C(=O)NC2CCCCC2)cc1)C(=O)O,active: 89.1 µM,–
CCOc1ccc(C2C(C(=O)Nc3ccccc3OC)=C(C)Nc3c(C(=O)Nc4cccc(C)c4)cnn32)cc1 (configuration not stated),"inconclusive: 35.5 µM [inhibitor, full curve, poor fit]",–
COc1ccc(-c2cc(C(F)(F)F)nc(NCc3ccc(Cl)cc3)n2)cc1,"inconclusive: 14.1 µM [inhibitor, full curve, poor fit]",–
Cn1nc(C(=O)N2CCN(c3ccc(Cl)cc3)CC2)c2c1-c1ccccc1S(=O)(=O)C2,"inconclusive: 31.6 µM [inhibitor, full curve]",–
CSc1ccc2c(c1)N(CCC1CCCCN1C)c1ccccc1S2 (configuration not stated),"inconclusive: 56.2 µM [inhibitor, partial curve, poor fit]",–
COc1ccc(CNC(=O)c2cc3c(-c4ccccc4F)nn(C)c3s2)cc1,"inconclusive: 31.6 µM [inhibitor, partial curve]",–

Compound,Potency,"activity change, negative = inhibition"
Cc1ccccc1COC(=O)c1nn(Cc2ccccc2)c(=O)c2ccccc12,–,inactive: -5.86%
Cc1ccc(NC(=O)c2cc3c(-c4ccccc4)nn(-c4ccccc4)c3s2)cc1,"inconclusive: 7.94 µM [inhibitor, full curve, poor fit]",–
CC1=C(/C=C/C(C)=C/C=C/C(C)=C\C(=O)O)C(C)(C)CCC1,–,inactive: -10.9%
COc1ccc(-c2cn3c(n2)sc2cc(C(=O)NCCCN4CCCCC4)ccc23)cc1,"inconclusive: 100 µM [inhibitor, partial curve, poor fit]",–
OC(CN1CCN(c2cccc(Cl)c2)CC1)C(c1ccccc1)c1ccccc1 (configuration not stated),–,inactive: -8.9%
O=C(CN(c1cc(C(F)(F)F)ccc1Cl)S(=O)(=O)c1ccccc1)NCCc1ccccc1,"inconclusive: 56.2 µM [inhibitor, partial curve, poor fit]",–
Cc1noc(Cn2c(=O)c3ccccc3n(CC(=O)Nc3ccc(F)cc3F)c2=O)n1,"inconclusive: 25.1 µM [inhibitor, partial curve, poor fit]",–
O=C(CCCc1nc(-c2ccccc2)no1)Nc1cc(C(F)(F)F)cc(C(F)(F)F)c1,"inconclusive: 39.8 µM [inhibitor, full curve, poor fit]",–
Cc1cc(NC(=O)CSc2nccn2-c2cccc(F)c2)no1,–,inactive: 3.2%
Cc1ccc(OCCn2cc(C(=O)c3ccco3)c3ccccc32)cc1C,"inconclusive: 28.2 µM [inhibitor, full curve, poor fit]",–
CC(=O)c1c(C)[nH]c(-c2csc(CC(=O)Nc3cccc(C)c3)n2)c1C,–,inactive: 9.11%
Cc1oc(-c2ccc(C(=O)Nc3cccc(C(F)(F)F)c3)cc2)nc1CSc1ccccc1,"inconclusive: 8.91 µM [inhibitor, full curve, poor fit]",–
O=C(NCc1coc(-c2cccs2)n1)c1ccc(Cl)cc1Cl,–,inactive: -3.76%
Cc1ccc(S(=O)(=O)N2CCN(c3nc4ccccc4nc3-n3nc(C)cc3C)CC2)cc1,"inconclusive: 44.7 µM [inhibitor, partial curve, poor fit]",–
CCCCCn1c(CCCNC(=O)c2cccc(C)c2)nc2ccccc21,"inconclusive: 44.7 µM [inhibitor, partial curve]",–
C/C(=C\c1ccc(C(=O)O)cc1)c1ccc2c(c1)C(C)(C)CCC2(C)C,"inconclusive: 89.1 µM [inhibitor, single point]",–
CCOc1ccc(CCNc2ncnc3onc(-c4ccc(Cl)cc4)c23)cc1,"inconclusive: 17.8 µM [inhibitor, full curve, poor fit]",–
CC(C)(C)OC(=O)N1CCC(c2nnc(SCc3ccccc3F)o2)CC1,"inconclusive: 25.1 µM [inhibitor, single point]",–
CC1CCN(S(=O)(=O)c2ccc3nc(NCc4ccc(F)cc4)ccc3c2)CC1,"inconclusive: 20 µM [inhibitor, full curve, poor fit]",–
COc1ccc(OC)c(CNC(=O)c2cc3ccc4cccnc4c3[nH]2)c1,"inconclusive: 50.1 µM [inhibitor, partial curve, poor fit]",–
CCc1ccccc1N(C)C(=O)c1sc2nc3n(c(=O)c2c1C)CCCCC3,"inconclusive: 50.1 µM [inhibitor, partial curve, poor fit]",–
